Data taken from a collection of fitness landscapes (doi:10.1126/science.1257360).
Some of the results follow.

B1: PhoQ; a variant is named by its letters at X, in order, P23837 (parent)
chain: MKKLLRLFFPLSLRVRFLLATAAVVLVLSLAYGMVALIGYSVSFDKTTFRLLRGESNLFYTLAKWENNKLHVELPENIDKQSPTMTLIYDENGQLLWAQRDVPWLMKMIQPDWLKSNGFHEIEADVNDTSLLLSGDHSIQQQLQEVREDDDDAEMTHSVAVNVYPATSRMPKLTIVVVDTIPVELKSSYMVWSWFIYVLSANLLLVIPLLWVAAWWSLRPIEALAKEVRELEEHNRELLNPATTRELTSLVRNLNRLLKSERERYDKYRTTLTDLTHSLKTPLXXLQXXLRSLRSEKMSVSDAEPVMLEQISRISQQIGYYLHRASMRGGTLLSRELHPVAPLLDNLTSALNKVYQRKGVNISLDISPEISFVGEQNDFVEVMGNVLDNACKYCLEFVEISARQTDEHLYIVVEDDGPGIPLSKREVIFDRGQRVDTLRPGQGVGLAVAREITEQYEGKIVAGESMLGGARMEVIFGRQHSAPKDE

Variants of: B1
Test: enrichment ratio after two sorts for PhoP signalling (ratio (wild type AVST 3.29)); higher = more functional
Details: with PhoP (E. coli)

Variant	enrichment ratio
SILL	1.4
MNRH	≤ 0.25
SQGA	≤ 0.25
FMAS	≤ 0.25
LKWR	≤ 0.25
TNKT	≤ 0.25
NQMA	≤ 0.25
HPPK	≤ 0.25
YRCD	≤ 0.25
DNMS	≤ 0.25
FNKK	≤ 0.25
MYAV	0.428
LVEP	0.737
EFTR	≤ 0.25
WTGY	≤ 0.25
WFWQ	≤ 0.25
AAIW	0.575
DGNI	≤ 0.25
AGWL	≤ 0.25
YYCN	≤ 0.25
IVSY	≤ 0.25
TVNC	3.39
RVRS	≤ 0.25
QNHW	≤ 0.25
DQIF	≤ 0.25

Variant	enrichment ratio
FKFK	≤ 0.25
DIIG	≤ 0.25
SPAY	≤ 0.25
GDNF	≤ 0.25
EGPQ	≤ 0.25
TMIT	≤ 0.25
AHMM	≤ 0.25
HNHE	≤ 0.25
HPCP	≤ 0.25
PFVH	≤ 0.25
IPSH	≤ 0.25
DQNT	≤ 0.25
KKLL	≤ 0.25
ESTE	≤ 0.25
ICCA	≤ 0.25
DFLP	≤ 0.25
RAAE	≤ 0.25
RAQY	≤ 0.25
VRPQ	≤ 0.25
QKHR	≤ 0.25
VKCP	≤ 0.25
HHSV	≤ 0.25
EYYW	≤ 0.25
SNAT	5.88
MIVE	≤ 0.25

Variant	enrichment ratio
EDAA	≤ 0.25
IHQF	≤ 0.25
VTNM	≤ 0.25
WKCP	≤ 0.25
EIDW	≤ 0.25
RQFH	≤ 0.25
WKTW	≤ 0.25
WAFQ	≤ 0.25
WMGD	≤ 0.25
PCPC	≤ 0.25
PKQD	≤ 0.25
MVIS	≤ 0.25
DLTP	≤ 0.25
YEPC	≤ 0.25
SSII	16.3
TDAQ	13.4
QIVH	≤ 0.25
WHKM	≤ 0.25
PYVR	0.636
KTTC	≤ 0.25
LHKE	≤ 0.25
FIEL	≤ 0.25
TPFW	≤ 0.25
NTFC	≤ 0.25
EMGF	≤ 0.25

Variant	enrichment ratio
PHLW	≤ 0.25
SFNG	≤ 0.25
GYWD	≤ 0.25
AHCA	≤ 0.25
DGTD	≤ 0.25
YQYL	≤ 0.25
YLAV	0.272
IESI	≤ 0.25
IRNT	≤ 0.25
IVCC	≤ 0.25
RHHM	≤ 0.25
QFMD	≤ 0.25
NEYH	≤ 0.25
PWDS	≤ 0.25
KAGA	≤ 0.25
CDYT	≤ 0.25
FPQE	≤ 0.25
IVRT	≤ 0.25
IPDY	≤ 0.25
LIWE	≤ 0.25
TINY	≤ 0.25
SMEL	≤ 0.25
FHRP	≤ 0.25
LNRP	≤ 0.25
ARTN	≤ 0.25

Variant	enrichment ratio
RFHP	≤ 0.25
QKNY	≤ 0.25
GQHN	≤ 0.25
MMHY	≤ 0.25
WLQR	≤ 0.25
LFRG	≤ 0.25
QKHW	≤ 0.25
PWSQ	≤ 0.25
HFPM	≤ 0.25
EGFP	≤ 0.25
SNLG	8.87
QVYM	≤ 0.25
WESS	≤ 0.25
PPSM	≤ 0.25
HLLA	≤ 0.25
MIGR	0.36
IRLP	≤ 0.25
FVFS	≤ 0.25
LIPK	≤ 0.25
SNFP	≤ 0.25
GMDR	≤ 0.25
QAQE	≤ 0.25
MRPS	≤ 0.25
DMCM	≤ 0.25
NFFN	≤ 0.25

Variant	enrichment ratio
WQKE	≤ 0.25
DCNY	≤ 0.25
PFQG	≤ 0.25
QYHV	0.497
KYTA	≤ 0.25
NKTE	≤ 0.25
EFVL	≤ 0.25
WMLC	≤ 0.25
TTNF	6.07
SADR	≤ 0.25
IRHF	≤ 0.25
WPSF	≤ 0.25
YGTQ	≤ 0.25
GMCY	3.55
NMLR	≤ 0.25
ARPH	≤ 0.25
YPQD	≤ 0.25
RRPA	≤ 0.25
AMNI	≤ 0.25
FALM	17
SAWT	≤ 0.25
PDPL	≤ 0.25
LAMR	≤ 0.25
YRDR	≤ 0.25
PVCG	≤ 0.25

Variant	enrichment ratio
DDRM	≤ 0.25
WTCF	≤ 0.25
VMYF	≤ 0.25
TNAH	4.19
YPWR	≤ 0.25
KTWG	≤ 0.25
RRTV	≤ 0.25
SKKY	≤ 0.25
LHHQ	≤ 0.25
LYFV	≤ 0.25
KPMC	≤ 0.25
VNAC	≤ 0.25
SVLG	9.57
VFMR	≤ 0.25
WPKH	≤ 0.25
QNSH	≤ 0.25
QCTL	≤ 0.25
AWGH	≤ 0.25
KHQY	≤ 0.25
KMHS	≤ 0.25
THFD	≤ 0.25
KVTE	≤ 0.25
TSEQ	≤ 0.25
NSEE	≤ 0.25
QTDK	≤ 0.25

Variant	enrichment ratio
HHMF	≤ 0.25
VPHA	≤ 0.25
CLCF	≤ 0.25
AYTW	≤ 0.25
YADW	≤ 0.25
AHKC	≤ 0.25
FDWR	≤ 0.25
PYYF	≤ 0.25
ATVH	10.8
DSQA	≤ 0.25
GMRG	≤ 0.25
LDGI	≤ 0.25
ETKL	≤ 0.25
FRIV	≤ 0.25
TTKI	≤ 0.25
MVKF	≤ 0.25
IDVI	≤ 0.25
LQGY	≤ 0.25
DGEY	≤ 0.25
IYNF	≤ 0.25
